Test results from PMC12820563.
The list shows a part of the results. The list includes weakly bound sequences.

Target: T1, MBP-FoxP3dN (UniProt Q99JB6)
T1 sequence: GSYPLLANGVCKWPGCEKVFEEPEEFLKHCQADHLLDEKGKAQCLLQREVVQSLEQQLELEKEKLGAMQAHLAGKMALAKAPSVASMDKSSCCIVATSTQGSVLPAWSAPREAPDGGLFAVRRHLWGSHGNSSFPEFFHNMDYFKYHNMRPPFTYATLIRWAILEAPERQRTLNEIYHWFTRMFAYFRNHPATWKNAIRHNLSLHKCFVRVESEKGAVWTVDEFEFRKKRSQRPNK
Assay: PD-seq (MBP pull-down with sequencing)
Conditions: 20 mM Tris-HCl pH 7.5, 100 mM NaCl, 1.5 mM MgCl2, 0.4 uM protein, 0.1 uM dsDNA library, 30 min, room temperature, amylose pull-down; high values mean tight binding; double strand, one strand shown

| Sequence | binding signal (RPM ratio (pull-down/input)) |
| --- | --- |
| GATGATTGTTCTCCCAGCTGATGAATTGCGGATTTCGAGTAAACAAATTTTCCTAATCTTTCTGTTCAAGCGCCATCTAC | 0.749 |
| GATGATTGTTCTCCCAGCTGATGAATTCTCATGTTCGAGTAAACAAATTTTCCTAATCTTTCTGTTCAAGCGCCATCTAC | 0.416 |
| GATGATTGTTCTCCCAGCTGATGAATTTCTGACATCGAGTAAACAAATTTTCCTAATCTTTCTGTTCAAGCGCCATCTAC | 0.411 |
| GATGATTGTTCTCCCAGCTGATGAATTTATCGGTTCGAGTAAACAAATTTTCCTAATCTTTCTGTTCAAGCGCCATCTAC | 0.825 |
| GATGATTGTTCTCCCAGCTGATGAATTTATCGTGTCGAGTAAACAAATTTTCCTAATCTTTCTGTTCAAGCGCCATCTAC | 2.63 |
| GATGATTGTTCTCCCAGCTGATGAATTGCTTCACTCGAGTAAACAAATTTTCCTAATCTTTCTGTTCAAGCGCCATCTAC | 0.53 |
| GATGATTGTTCTCCCAGCTGATGAATTAGATTTTTCGAGTAAACAAATTTTCCTAATCTTTCTGTTCAAGCGCCATCTAC | 0.874 |
| GATGATTGTTCTCCCAGCTGATGAATTGAGAATATCGAGTAAACAAATTTTCCTAATCTTTCTGTTCAAGCGCCATCTAC | 0.432 |
| GATGATTGTTCTCCCAGCTGATGAATTGAGAGCTTCGAGTAAACAAATTTTCCTAATCTTTCTGTTCAAGCGCCATCTAC | 0.31 |
| GATGATTGTTCTCCCAGCTGATGAATTGTTAGACTCGAGTAAACAAATTTTCCTAATCTTTCTGTTCAAGCGCCATCTAC | 0.492 |
| GATGATTGTTCTCCCAGCTGATGAATTCCGCCTATCGAGTAAACAAATTTTCCTAATCTTTCTGTTCAAGCGCCATCTAC | 3.12 |
| GATGATTGTTCTCCCAGCTGATGAATTAGTCGAGTCGAGTAAACAAATTTTCCTAATCTTTCTGTTCAAGCGCCATCTAC | 0.367 |
| GATGATTGTTCTCCCAGCTGATGAATTGGGACATTCGAGTAAACAAATTTTCCTAATCTTTCTGTTCAAGCGCCATCTAC | 1.04 |
| GATGATTGTTCTCCCAGCTGATGAATTTTCATTATCGAGTAAACAAATTTTCCTAATCTTTCTGTTCAAGCGCCATCTAC | 0.571 |
| GATGATTGTTCTCCCAGCTGATGAATTTCTCGCGTCGAGTAAACAAATTTTCCTAATCTTTCTGTTCAAGCGCCATCTAC | 0.439 |
| GATGATTGTTCTCCCAGCTGATGAATTTCTGTAGTCGAGTAAACAAATTTTCCTAATCTTTCTGTTCAAGCGCCATCTAC | 0.385 |
| GATGATTGTTCTCCCAGCTGATGAATTTGGTGTATCGAGTAAACAAATTTTCCTAATCTTTCTGTTCAAGCGCCATCTAC | 3.25 |
| GATGATTGTTCTCCCAGCTGATGAATTACCATTATCGAGTAAACAAATTTTCCTAATCTTTCTGTTCAAGCGCCATCTAC | 0.602 |
| GATGATTGTTCTCCCAGCTGATGAATTTACCTTTTCGAGTAAACAAATTTTCCTAATCTTTCTGTTCAAGCGCCATCTAC | 0.465 |
| GATGATTGTTCTCCCAGCTGATGAATTATCTGGCTCGAGTAAACAAATTTTCCTAATCTTTCTGTTCAAGCGCCATCTAC | 0.242 |
| GATGATTGTTCTCCCAGCTGATGAATTGATGGCGTCGAGTAAACAAATTTTCCTAATCTTTCTGTTCAAGCGCCATCTAC | 0.857 |

| Sequence | binding signal (RPM ratio (pull-down/input)) |
| --- | --- |
| GATGATTGTTCTCCCAGCTGATGAATTTAGTTCCTCGAGTAAACAAATTTTCCTAATCTTTCTGTTCAAGCGCCATCTAC | 1.29 |
| GATGATTGTTCTCCCAGCTGATGAATTTCGCAAGTCGAGTAAACAAATTTTCCTAATCTTTCTGTTCAAGCGCCATCTAC | 2.15 |
| GATGATTGTTCTCCCAGCTGATGAATTTATTGCATCGAGTAAACAAATTTTCCTAATCTTTCTGTTCAAGCGCCATCTAC | 3.24 |
| GATGATTGTTCTCCCAGCTGATGAATTTCACACTTCGAGTAAACAAATTTTCCTAATCTTTCTGTTCAAGCGCCATCTAC | 0.382 |
| GATGATTGTTCTCCCAGCTGATGAATTCTGGATTTCGAGTAAACAAATTTTCCTAATCTTTCTGTTCAAGCGCCATCTAC | 0.311 |
| GATGATTGTTCTCCCAGCTGATGAATTCGGAGTGTCGAGTAAACAAATTTTCCTAATCTTTCTGTTCAAGCGCCATCTAC | 1 |
| GATGATTGTTCTCCCAGCTGATGAATTAACTACCTCGAGTAAACAAATTTTCCTAATCTTTCTGTTCAAGCGCCATCTAC | 0.294 |
| GATGATTGTTCTCCCAGCTGATGAATTTAGACCGTCGAGTAAACAAATTTTCCTAATCTTTCTGTTCAAGCGCCATCTAC | 0.5 |
| GATGATTGTTCTCCCAGCTGATGAATTATGGCTATCGAGTAAACAAATTTTCCTAATCTTTCTGTTCAAGCGCCATCTAC | 0.842 |
| GATGATTGTTCTCCCAGCTGATGAATTTTCCGCCTCGAGTAAACAAATTTTCCTAATCTTTCTGTTCAAGCGCCATCTAC | 0.519 |
| GATGATTGTTCTCCCAGCTGATGAATTTGATCGTTCGAGTAAACAAATTTTCCTAATCTTTCTGTTCAAGCGCCATCTAC | 0.631 |
| GATGATTGTTCTCCCAGCTGATGAATTCATGTCCTCGAGTAAACAAATTTTCCTAATCTTTCTGTTCAAGCGCCATCTAC | 0.711 |
| GATGATTGTTCTCCCAGCTGATGAATTAGACCTTTCGAGTAAACAAATTTTCCTAATCTTTCTGTTCAAGCGCCATCTAC | 0.323 |
| GATGATTGTTCTCCCAGCTGATGAATTTCCAATCTCGAGTAAACAAATTTTCCTAATCTTTCTGTTCAAGCGCCATCTAC | 0.31 |
| GATGATTGTTCTCCCAGCTGATGAATTCCCAGACTCGAGTAAACAAATTTTCCTAATCTTTCTGTTCAAGCGCCATCTAC | 0.193 |
| GATGATTGTTCTCCCAGCTGATGAATTAGAGCTATCGAGTAAACAAATTTTCCTAATCTTTCTGTTCAAGCGCCATCTAC | 0.528 |
| GATGATTGTTCTCCCAGCTGATGAATTAGGTCCGTCGAGTAAACAAATTTTCCTAATCTTTCTGTTCAAGCGCCATCTAC | 0.303 |
| GATGATTGTTCTCCCAGCTGATGAATTGCGCATATCGAGTAAACAAATTTTCCTAATCTTTCTGTTCAAGCGCCATCTAC | 4.08 |
| GATGATTGTTCTCCCAGCTGATGAATTAGTGCACTCGAGTAAACAAATTTTCCTAATCTTTCTGTTCAAGCGCCATCTAC | 1.15 |
| GATGATTGTTCTCCCAGCTGATGAATTTCCTGCGTCGAGTAAACAAATTTTCCTAATCTTTCTGTTCAAGCGCCATCTAC | 0.376 |
| GATGATTGTTCTCCCAGCTGATGAATTCCGGTGTTCGAGTAAACAAATTTTCCTAATCTTTCTGTTCAAGCGCCATCTAC | 0.754 |

| Sequence | binding signal (RPM ratio (pull-down/input)) |
| --- | --- |
| GATGATTGTTCTCCCAGCTGATGAATTAAGCACGTCGAGTAAACAAATTTTCCTAATCTTTCTGTTCAAGCGCCATCTAC | 1.23 |
| GATGATTGTTCTCCCAGCTGATGAATTGCCGAATTCGAGTAAACAAATTTTCCTAATCTTTCTGTTCAAGCGCCATCTAC | 1.06 |
| GATGATTGTTCTCCCAGCTGATGAATTTAGCAAGTCGAGTAAACAAATTTTCCTAATCTTTCTGTTCAAGCGCCATCTAC | 1.82 |
| GATGATTGTTCTCCCAGCTGATGAATTTGTTACCTCGAGTAAACAAATTTTCCTAATCTTTCTGTTCAAGCGCCATCTAC | 4.54 |
| GATGATTGTTCTCCCAGCTGATGAATTAGGCGCCTCGAGTAAACAAATTTTCCTAATCTTTCTGTTCAAGCGCCATCTAC | 1.35 |
| GATGATTGTTCTCCCAGCTGATGAATTGCCGACTTCGAGTAAACAAATTTTCCTAATCTTTCTGTTCAAGCGCCATCTAC | 0.763 |
| GATGATTGTTCTCCCAGCTGATGAATTCTAGTCCTCGAGTAAACAAATTTTCCTAATCTTTCTGTTCAAGCGCCATCTAC | 0.309 |
| GATGATTGTTCTCCCAGCTGATGAATTTCATCAATCGAGTAAACAAATTTTCCTAATCTTTCTGTTCAAGCGCCATCTAC | 0.31 |
| GATGATTGTTCTCCCAGCTGATGAATTTGTGCAATCGAGTAAACAAATTTTCCTAATCTTTCTGTTCAAGCGCCATCTAC | 4.74 |
| GATGATTGTTCTCCCAGCTGATGAATTCTGGGGCTCGAGTAAACAAATTTTCCTAATCTTTCTGTTCAAGCGCCATCTAC | 0.253 |
| GATGATTGTTCTCCCAGCTGATGAATTGCGGACATCGAGTAAACAAATTTTCCTAATCTTTCTGTTCAAGCGCCATCTAC | 0.781 |
| GATGATTGTTCTCCCAGCTGATGAATTTCACAGTTCGAGTAAACAAATTTTCCTAATCTTTCTGTTCAAGCGCCATCTAC | 0.328 |
| GATGATTGTTCTCCCAGCTGATGAATTAGGGTAGTCGAGTAAACAAATTTTCCTAATCTTTCTGTTCAAGCGCCATCTAC | 0.535 |
| GATGATTGTTCTCCCAGCTGATGAATTCAAGCCTTCGAGTAAACAAATTTTCCTAATCTTTCTGTTCAAGCGCCATCTAC | 1.29 |
| GATGATTGTTCTCCCAGCTGATGAATTGTAACGGTCGAGTAAACAAATTTTCCTAATCTTTCTGTTCAAGCGCCATCTAC | 0.469 |
| GATGATTGTTCTCCCAGCTGATGAATTTTTCGTATCGAGTAAACAAATTTTCCTAATCTTTCTGTTCAAGCGCCATCTAC | 0.378 |
| GATGATTGTTCTCCCAGCTGATGAATTCGGGTACTCGAGTAAACAAATTTTCCTAATCTTTCTGTTCAAGCGCCATCTAC | 0.645 |
| GATGATTGTTCTCCCAGCTGATGAATTCGGCAATTCGAGTAAACAAATTTTCCTAATCTTTCTGTTCAAGCGCCATCTAC | 4.03 |
| GATGATTGTTCTCCCAGCTGATGAATTCATATCGTCGAGTAAACAAATTTTCCTAATCTTTCTGTTCAAGCGCCATCTAC | 0.845 |
| GATGATTGTTCTCCCAGCTGATGAATTTCATGACTCGAGTAAACAAATTTTCCTAATCTTTCTGTTCAAGCGCCATCTAC | 0.388 |
| GATGATTGTTCTCCCAGCTGATGAATTCTTGCCATCGAGTAAACAAATTTTCCTAATCTTTCTGTTCAAGCGCCATCTAC | 1.84 |
